A compilation of properties of binary mixtures (doi:10.1080/00450618.2013.825812)
Some of these densities may be calculated back from excess volumes.

Assay: xn = mol fraction of the nth substance listed
Settings: 100 kPa

CCCC[n+]1ccn(CC)c1.[Br-] + CO
mass density [kg/m3]
Settings	293.15 K	298.15 K	303.15 K	308.15 K	313.15 K
x1 = 0.0251	846.2	–	837.6	833.1	–
x1 = 0.0498	891.1	886.7	882.4	878	874
x1 = 0.0749	929.9	–	921.5	917.2	–
x1 = 0.1043	968.4	964.3	960.2	–	952.4
x1 = 0.1485	–	1010.8	–	1003	999.4
x1 = 0.199	1057.1	1053	1049.2	–	–
x1 = 0.243	1086.3	1082.7	1079.3	–	–
x1 = 0.302	1117.7	1114.3	1110.8	1107	–
x1 = 0.3975	1156.5	1152.7	–	–	–
x1 = 0.4887	1183.8	–	1176.6	1173	1169.8
x1 = 0.6025	1209.3	1205.5	1202.1	–	1195.7
x1 = 0.7015	1226.6	1223.2	1219.8	1216.4	1213.5
x1 = 0.7965	1240.5	1237	1233.6	–	–
x1 = 0.888	1252	1248.2	1244.7	–	1237.8
